In the supplement of paper PMC12217912:
The list shows a part of the results. Sequences were assembled here from the parent chain. Inactive controls read about 0.05.

B1: TEV protease; numbered along this chain (parent)
chain: MGESLFKGPRDYNPISSSICHLTNESDGHTTSLYGIGFGPFIITNKHLFRRNNGTLVVQSLHGVFKVKDTTTLQQHLVDGRDMIIIRMPKDFPPFPQKLKFREPQREERICLVTTNFQTKSMSSMVSDTSCTFPSGDGIFWKHWIQTKDGQCGSPLVSTRDGFIVGIHSASNFTNTNNYFTSVPKNFMELLTNQEAQQWVSGWRLNADSVLWGGHKVFMVKPEEPFQPVKEATQL

Variants of: B1
Experiment: raw area under fraction-flipped curve 0-4 h after induction (AUC4h, not background-subtracted), DNA-recorder readout of cleavage of the substrate (dimensionless); higher = more cleavage of the substrate by the protease variant
Conditions: temperature: 34 °C; time window: 0-4 h after rhamnose induction
Experimental: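 In vivo DNA recorder in E. coli TOP10(DE3) ΔrhaA at 34 °C. Each TEVp single-site mutant (parent TEVp 0) is paired with a single-site variant of the 7-mer TEVs (canonical ENLYFQ|S). The substrate sits between flexible linkers in a Bxb1-sfGFP-TEVs-SsrA fusion, so cleavage stabilises Bxb1 and speeds flipping of a recombination array, read by NGS. The value is the raw area under the fraction-flipped curve over 0-4 h after rhamnose induction (AUC4h), with ≥20 reads per time point. It is not background-subtracted; inactive controls average about 0.047.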
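Further: Bxb1 expression induced with 0.2% (w/v) L-rhamnose at OD600 near 0.5, cultures sampled hourly, flipped fraction per protease–substrate barcode pair counted by paired-end Illumina sequencing.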

Variant | area with substrate ENLAFQS | area with substrate ENLDFQS | area with substrate ENLEFQS | area with substrate ENLFFQS | area with substrate ENLHFQS | area with substrate ENLIFQS | area with substrate ENLKFQS | area with substrate ENLLFQS | area with substrate ENLMFQS | area with substrate ENLNFQS | area with substrate ENLPFQS | area with substrate ENLRFQS | area with substrate ENLSFQS | area with substrate ENLVFQS | area with substrate ENLWFQS | area with substrate ENLGFQS | area with substrate ENLQFQS | area with substrate ENLTFQS | area with substrate ENLCFQS
N175E | 0.0657 | 0.0738 | 0.0636 | 0.0852 | 0.0455 | 0.0708 | 0.0712 | 0.0469 | 0.0647 | 0.055 | 0.0654 | 0.0343 | 0.0496 | 0.043 |  |  |  |  | 
N175R | 0.0699 |  | 0.0714 | 0.114 |  | 0.0994 | 0.0645 |  | 0.115 | 0.0713 | 0.0663 |  |  | 0.149 | 0.0813 |  |  |  | 
Y179K | 0.0635 | 0.0617 | 0.064 |  |  |  | 0.0647 |  |  | 0.0662 |  |  |  | 0.0574 |  | 0.0597 | 0.0377 | 0.0518 | 
F180G | 0.0544 |  | 0.0455 | 0.064 | 0.0674 | 0.0427 | 0.0631 |  |  |  | 0.0726 | 0.0818 | 0.0646 | 0.0606 | 0.0584 | 0.0565 | 0.0766 |  | 
F180W | 0.06 | 0.0531 | 0.0661 | 0.0562 | 0.0598 | 0.069 | 0.0721 |  |  | 0.0587 | 0.0387 |  | 0.0588 | 0.0498 |  | 0.0644 |  |  | 
S182K | 0.0725 | 0.0623 | 0.0615 | 0.0847 | 0.064 |  | 0.073 |  | 0.0899 | 0.0621 | 0.0581 |  | 0.0405 | 0.0676 | 0.0635 | 0.0573 | 0.0555 |  | 0.0317
S182N | 0.0631 | 0.0527 |  | 0.0749 | 0.0556 |  | 0.0608 | 0.0499 |  | 0.0496 | 0.0461 | 0.0417 | 0.0633 |  |  | 0.0581 | 0.0492 |  | 0.0525
V183R | 0.0586 |  |  | 0.0487 |  | 0.0533 | 0.0581 | 0.0481 | 0.0651 | 0.0505 | 0.0549 | 0.0602 | 0.0499 | 0.0566 | 0.0575 |  |  |  | 0.0639
P184M | 0.0534 | 0.0631 | 0.0603 | 0.0482 | 0.0608 | 0.0565 | 0.065 | 0.0627 | 0.0484 | 0.0565 | 0.0461 | 0.0695 | 0.0706 | 0.0094 | 0.0364 |  | 0.0645 | 0.0337 | 
N186P | 0.0597 | 0.0626 | 0.0687 | 0.0691 |  | 0.0673 | 0.0563 | 0.0637 |  | 0.0615 |  |  | 0.0572 |  |  |  |  |  | 0.0411
M188E | 0.0493 | 0.0772 |  | 0.0813 | 0.0696 |  |  | 0.0675 |  | 0.0692 |  |  | 0.0616 |  |  |  | 0.0523 |  | 
M188W | 0.0918 | 0.0576 | 0.0625 | 0.0696 | 0.0576 |  | 0.0833 | 0.0412 |  | 0.0659 | 0.0542 |  | 0.0546 | 0.0837 |  | 0.0569 | 0.0584 |  | 0.0643
E189M | 0.0681 | 0.048 | 0.0582 | 0.0753 | 0.0461 | 0.0756 | 0.0682 | 0.0697 | 0.0702 | 0.0411 | 0.0798 | 0.0587 | 0.053 | 0.0778 | 0.0624 |  | 0.0767 |  | 0.0846
L190H | 0.0594 | 0.0534 |  | 0.0828 | 0.0626 |  | 0.0625 | 0.0716 |  | 0.0679 | 0.0651 | 0.062 | 0.0503 |  |  |  | 0.0767 | 0.0702 | 0.0795
L191D | 0.0793 |  | 0.0776 | 0.0655 |  |  | 0.058 |  |  | 0.0446 | 0.0541 | 0.0552 | 0.0589 | 0.0612 |  |  |  |  | 
L191G | 0.0517 | 0.0643 |  | 0.0691 | 0.0491 |  | 0.0661 | 0.0438 | 0.0577 | 0.0549 |  | 0.0512 | 0.0521 |  |  | 0.0781 | 0.0586 | 0.0573 | 0.0449
T192A | 0.0688 | 0.0651 | 0.049 |  | 0.0746 |  |  |  | 0.0651 |  |  | 0.0646 | 0.0696 |  | 0.039 | 0.0762 | 0.0738 |  | 
T192F | 0.0557 | 0.0644 | 0.0517 | 0.0864 | 0.0706 | 0.0065 | 0.0733 |  |  | 0.0624 | 0.0766 |  |  |  |  | 0.0706 |  | 0.0523 | 
N193T | 0.0497 | 0.0643 |  | 0.0842 | 0.0573 | 0.0872 | 0.0773 | 0.0562 |  |  | 0.0625 | 0.0689 | 0.0715 |  |  |  |  |  | 0.0646
Q194T | 0.0536 | 0.0637 |  | 0.0712 | 0.0629 | 0.0785 | 0.0632 | 0.0616 | 0.0722 | 0.0656 | 0.0558 | 0.0735 | 0.0678 | 0.105 | 0.0701 |  |  |  | 0.0726
A196E | 0.0588 | 0.0643 | 0.0738 | 0.104 | 0.0924 | 0.0883 | 0.072 | 0.0768 |  | 0.0561 | 0.0548 | 0.0746 | 0.0264 | 0.0563 | 0.0715 |  | 0.0577 |  | 
A196K | 0.0664 | 0.0646 |  | 0.0862 | 0.0721 | 0.0684 | 0.0773 | 0.0674 | 0.0657 | 0.0682 | 0.0536 | 0.0809 | 0.0628 | 0.0801 | 0.0972 |  |  | 0.0738 | 0.0713
Q198R | 0.0525 |  | 0.0636 |  | 0.0775 | 0.0916 | 0.0856 |  |  | 0.0573 | 0.0649 |  | 0.0367 |  |  |  |  |  | 
Q198W | 0.0706 | 0.055 | 0.0643 | 0.0695 |  | 0.105 | 0.0842 | 0.0638 | 0.0552 | 0.0545 | 0.0584 | 0.068 | 0.0744 |  | 0.0801 |  |  |  | 0.0643
W199L | 0.0685 | 0.0697 |  | 0.0595 | 0.0405 | 0.0647 |  |  |  | 0.0656 |  | 0.0547 | 0.0486 |  | 0.0426 |  | 0.0627 |  | 
W199R | 0.0765 | 0.061 | 0.0435 | 0.0573 | 0.0612 |  | 0.0445 |  | 0.07 | 0.0783 | 0.0686 | 0.0561 | 0.0845 |  | 0.0567 |  |  |  | 0.0536
S201A | 0.0555 | 0.0847 | 0.0817 | 0.075 | 0.0637 | 0.0654 | 0.0732 | 0.0715 | 0.0697 | 0.078 | 0.0502 | 0.0665 | 0.0559 |  | 0.0611 |  | 0.0599 |  | 0.111
G202H | 0.0423 |  | 0.0562 | 0.0694 |  |  | 0.08 |  |  | 0.0628 | 0.0684 | 0.0442 | 0.0704 |  | 0.0597 |  | 0.0471 |  | 0.0616
